# Reference: article PMC9911399, “Two distinct binding modes provide the RNA-binding protein RbFox with extraordinary sequence specificity”
# Where a chain is given by its changes, count along the chain named. The list shows a part of the results.
# T1: RBFOX1 RRM (Homo sapiens, UniProt Q9NWB1 109-208)
# T1 sequence: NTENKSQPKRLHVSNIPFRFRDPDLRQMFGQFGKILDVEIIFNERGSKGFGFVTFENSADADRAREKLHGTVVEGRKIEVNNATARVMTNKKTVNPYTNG
# B1: ACCGUAU (DNA:RNA)
# RNA: GGGAGACCGGAAUUCAGAUUGUCCACCGUAUUUAAAUCCCGUCGUAGCCACCA
# DNA 1: CAATCTGAATTCCGGTCTCCC
# DNA 2: TGGTGGCTACGACGGGATT
# B2: GGGGCUU (DNA:RNA)
# RNA: B1 RNA with A25G, C26G, C27G, U29C, A30U
# DNA 1: CAATCTGAATTCCGGTCTCCC
# DNA 2: TGGTGGCTACGACGGGATT
# B3: AGAGUCA (DNA:RNA)
# RNA: B1 RNA with C26G, C27A, A30C, U31A
# DNA 1: CAATCTGAATTCCGGTCTCCC
# DNA 2: TGGTGGCTACGACGGGATT
# B4: GAGUGGC (DNA:RNA)
# RNA: GGGAGACCGGAAUUCAGAUUGUCCGAGUGGCUUAAAUCCCGUCGUAGCCACCA
# DNA 1: CAATCTGAATTCCGGTCTCCC
# DNA 2: TGGTGGCTACGACGGGATT
# B5: UGCGACU (DNA:RNA)
# RNA: B1 RNA with A25U, C26G, U29A, A30C
# DNA 1: CAATCTGAATTCCGGTCTCCC
# DNA 2: TGGTGGCTACGACGGGATT
# B6: AGAUGGC (DNA:RNA)
# RNA: B4 RNA with G25A, A26G, G27A
# DNA 1: CAATCTGAATTCCGGTCTCCC
# DNA 2: TGGTGGCTACGACGGGATT
# B7: ACUUUGA (DNA:RNA)
# RNA: B1 RNA with C27U, G28U, A30G, U31A
# DNA 1: CAATCTGAATTCCGGTCTCCC
# DNA 2: TGGTGGCTACGACGGGATT
# B8: AGCUGUG (DNA:RNA)
# RNA: B1 RNA with C26G, G28U, U29G, A30U, U31G
# DNA 1: CAATCTGAATTCCGGTCTCCC
# DNA 2: TGGTGGCTACGACGGGATT
# B9: GAAGUCA (DNA:RNA)
# RNA: B1 RNA with A25G, C26A, C27A, A30C, U31A
# DNA 1: CAATCTGAATTCCGGTCTCCC
# DNA 2: TGGTGGCTACGACGGGATT
# B10: ACCGGUU (DNA:RNA)
# RNA: B1 RNA with U29G, A30U
# DNA 1: CAATCTGAATTCCGGTCTCCC
# DNA 2: TGGTGGCTACGACGGGATT
# B11: AUCUGUG (DNA:RNA)
# RNA: B1 RNA with C26U, G28U, U29G, A30U, U31G
# DNA 1: CAATCTGAATTCCGGTCTCCC
# DNA 2: TGGTGGCTACGACGGGATT
# B12: GGCGACU (DNA:RNA)
# RNA: B1 RNA with A25G, C26G, U29A, A30C
# DNA 1: CAATCTGAATTCCGGTCTCCC
# DNA 2: TGGTGGCTACGACGGGATT
# B13: UGCCUUC (DNA:RNA)
# RNA: B1 RNA with A25U, C26G, G28C, A30U, U31C
# DNA 1: CAATCTGAATTCCGGTCTCCC
# DNA 2: TGGTGGCTACGACGGGATT
# B14: GGUGGCA (DNA:RNA)
# RNA: B4 RNA with A26G, G27U, U28G, G30C, C31A
# DNA 1: CAATCTGAATTCCGGTCTCCC
# DNA 2: TGGTGGCTACGACGGGATT
# B15: UGUGAAA (DNA:RNA)
# RNA: B1 RNA with A25U, C26G, C27U, U29A, U31A
# DNA 1: CAATCTGAATTCCGGTCTCCC
# DNA 2: TGGTGGCTACGACGGGATT
# B16: CCGGGAU (DNA:RNA)
# RNA: B1 RNA with A25C, C27G, U29G
# DNA 1: CAATCTGAATTCCGGTCTCCC
# DNA 2: TGGTGGCTACGACGGGATT
# B17: AUCCGAG (DNA:RNA)
# RNA: B1 RNA with C26U, G28C, U29G, U31G
# DNA 1: CAATCTGAATTCCGGTCTCCC
# DNA 2: TGGTGGCTACGACGGGATT
# B18: GCUGAUC (DNA:RNA)
# RNA: B1 RNA with A25G, C27U, U29A, A30U, U31C
# DNA 1: CAATCTGAATTCCGGTCTCCC
# DNA 2: TGGTGGCTACGACGGGATT
# B19: AUGUGGA (DNA:RNA)
# RNA: B4 RNA with G25A, A26U, C31A
# DNA 1: CAATCTGAATTCCGGTCTCCC
# DNA 2: TGGTGGCTACGACGGGATT
# B20: CUGGUCU (DNA:RNA)
# RNA: B1 RNA with A25C, C26U, C27G, A30C
# DNA 1: CAATCTGAATTCCGGTCTCCC
# DNA 2: TGGTGGCTACGACGGGATT
# Biological target: T1, RBFOX1 RRM
# Assay: EMSA; HiTS-Eq, 1 nM pool, 10 min; buffer printed only for the single-RNA assays: 10 mM Tris pH 7.5, 150 mM NaCl, 3.4 mM EDTA, 0.001% NP-40, 30 C
# Conditions: tags: His6 N-terminal (pET28a); label: 5' 32P
# How it was run: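 Relative association constants, normalised to the cognate motif, were derived by comparing read counts of each RNA species with those of the control reaction. The RNA sequenced was the free fraction, separated by 8% native PAGE after a 10 min equilibration in 50 µL of 1 nM 5′-radiolabelled RNA (7 randomized nucleotides) with increasing concentrations of purified wild-type or mutant RbFox RRM.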
row,Binder,binding signal
1,B1,0.00208 KA relative to UGCAUGU
2,B2,0.033 KA relative to UGCAUGU
3,B3,0.00503 KA relative to UGCAUGU
4,B4,0.0137 KA relative to UGCAUGU
5,B5,0.0153 KA relative to UGCAUGU
6,B6,0.0111 KA relative to UGCAUGU
7,B7,0.0123 KA relative to UGCAUGU
8,B8,0.0194 KA relative to UGCAUGU
9,B9,0.00633 KA relative to UGCAUGU
10,B10,0.00787 KA relative to UGCAUGU
11,B11,0.0171 KA relative to UGCAUGU
12,B12,0.0113 KA relative to UGCAUGU
13,B13,0.0226 KA relative to UGCAUGU
14,B14,0.016 KA relative to UGCAUGU
15,B15,0.0152 KA relative to UGCAUGU
16,B16,0.0168 KA relative to UGCAUGU
17,B17,0.00535 KA relative to UGCAUGU
18,B18,0.0189 KA relative to UGCAUGU
19,B19,0.00591 KA relative to UGCAUGU
20,B20,0.0225 KA relative to UGCAUGU
